Sequences and labels used below:
B1: CPEB3 Ribozyme (parent)
chain: UAACAGGGGGCCACAGCAGAAGCGUUCACGUCGCAGCCCCUGUCAGAUUCUGGUGAAUCUGCGAAUUCUGCUGUAUAUCUC

Read counts are not given, so values of variants with three or more changes are uncertain.

This data set covers variants of B1. The data set can be described thus: self-cleavage, relative activity (ratio to wild type); higher = more cleavage; in vitro, sequencing. A digest of the protocol:
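After error-prone PCR and barcoding, CPEB3 ribozyme mutant libraries were transcribed with T7 RNA polymerase at 37°C for 5 hours, then given 15 min with DNase I before an EDTA stop, and they cleaved during both steps. Reverse transcription with template switching preceded Illumina sequencing. Relative activity divides a variant's cleaved/total read fraction by the unmutated ribozyme's. At least 5 reads were required per variant, and three batches were averaged.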
As for C37U U41C U74C U80C, the self-cleavage is 0.86. Regarding C40U U43C U60C, the self-cleavage was 0.15. With U41A U43A A56C C71U, the self-cleavage was 0.1.

Consider A35U U51C U69C A77G, for which the self-cleavage stood at 0.16. As to A35U U41A U58C U60A, the self-cleavage is 0.11. On to U41A U43C G55A, for which the self-cleavage came to 0.08.

For C39A U41C A57G U69G, the self-cleavage came out at 0.1. On to A35U C62G U67C, for which the self-cleavage was 0.11. U41C A45G U76A: the self-cleavage was determined as 1.07. In the case of C38A A47G A56G, the self-cleavage stood at 0.18. With C38U A56G A57G A64G the figure was 0.26. With C37U U49C G55A the figure was 0.34. With U41A A45U U54A A57C U72C the figure was 0.12; with A35G U43C U49A U58C, 0.03; with C37A U41C U60C, 0.24. On to U41A A64U U74A, for which the self-cleavage was determined as 0.18. For the variant C38A U54C A65G, the self-cleavage stood at 0.05.

In the case of C38G U41A A45U C59U U67C U69A U76G, the self-cleavage came out at 0.17. Turning to C39A A47G G63A, the self-cleavage was 0.2. With A35U U69C U80C, the self-cleavage is 0.13. With U41C A45G U60G U80C the figure was 0.43. Under A35U G42A U43A stands 0.17. With A35U C50A U74C the figure was 0.89.

With A35U C38A A64G U69A U80C, the self-cleavage was 0.12.

On to C37U C40A U72C U74A, for which the self-cleavage amounted to 0.17. As to C39U A57G U69A, the self-cleavage amounted to 0.23.

As for A35U A47G A56U, the self-cleavage stood at 0.15. Consider A35U A45U U54C U66C U67C, for which the self-cleavage came out at 0.14. Regarding A35U U60C U72C U78C, the self-cleavage turned out to be 0.19. Consider U41A G55U A75G U78C, for which the self-cleavage worked out at 0.35. For C40A U48C A77G, the self-cleavage came to 0.11.

Take A35G U43C A45U U67C: the self-cleavage was 0.52. Regarding A35G U66C A75U U80A, the self-cleavage worked out at 1.12. As to C37U U54G A64G U74C, the self-cleavage turned out to be 0.31.

Turning to C38U A57U U60C A65G A77U, the self-cleavage is 0.12. With A35G U41A U54C U69C U76C the figure was 0.14; with A35U A57G A64U, 0.2. Take U41A U43A A45G U69A: the self-cleavage was 0.14. Under U41C A47U U66C stands 0.08. As to U41C A56C U60A U69C, the self-cleavage was 0.22.

As to A35G U67C U69A, the self-cleavage stood at 0.46. For A35U U67A U78C C79A, the self-cleavage turned out to be 0.07. Under G36C A45G C59U stands 0.39; under C39U U54C A64U, 0.08. With A35U U49C U76A U78C the figure was 0.1; with U41A A47G U58A C59A, 0.14; with A35U U41C A45G U58C C62A, 0.09. On to U41A A47G G61A, for which the self-cleavage stood at 0.54. For the variant C40U U43A U58C U69C, the self-cleavage is 0.13. With C40U A57G U60C A64U the figure was 0.07; with A35G U48C U74C, 1.14; with U41A A45G G70C, 0.22. With C37U U41C U80C the figure was 0.81.

With C38A C39U U41A U49C, the self-cleavage amounted to 0.09. With C37U U51A U60G, the self-cleavage was determined as 0.19. Regarding C40U U49C G63U U67C A75G U78C, the self-cleavage is 0.07. With A35G U43C A56G U74C the figure was 0.95. For the variant U41A U43A U66C, the self-cleavage turned out to be 0.4. Under C39U U43A A47G U48C stands 0.06; under A35G U41G U51A U66C, 0.16; under A35U G70C U78C, 0.1. Take A35U U41C U67A A75U: the self-cleavage stood at 0.11. With C39A U58A U76C U78C, the self-cleavage is 0.08. With C38U A56U U74C, the self-cleavage turned out to be 0.79. For the variant U41C A65C U72G U80A, the self-cleavage was 0.2. Under C40A A45U U78C stands 0.09. With A35G U41A U51C U58C the figure was 0.25. Consider U41A A57G A65G, for which the self-cleavage amounted to 0.23. Take A35U U51C U67C U78C: the self-cleavage stood at 0.2. Turning to U41C A65G G73U, the self-cleavage was determined as 1.06. With A35G U54A A56U A57G U76C, the self-cleavage was found to be 1.1. In the case of A35U A56U A64G, the self-cleavage is 0.12.

As to A35G U51A U78C, the self-cleavage was 1.35. Turning to C39G A47G U66C A77U, the self-cleavage is 0.26.

Take A35G U41C G46U U69C U72C U80C: the self-cleavage amounted to 0.22. As for C40U U60A U74C, the self-cleavage came out at 0.69. Under C39U U67C U80C stands 0.12; under C39U U41A U74G, 0.39; under A35U U41C A56G U80A, 0.65.

As for C39A U51C G73C, the self-cleavage was 0.7. In the case of U41A G61A A77G, the self-cleavage came out at 0.18. With A35U U43A U72C the figure was 0.77. As to C38U A57G U58C, the self-cleavage stood at 0.33. As for C37A U43C G55A A56U, the self-cleavage turned out to be 0.12.
